The supplement of paper PMC11417369
± gives the standard deviation of the averaged measurements. The list shows a part of the results.

Each sequence was assayed on PfAP2-G AP2 domain (GST-tagged) (assay: gcPBM binding intensity (ln(normalized median fluorescence intensity)); higher = stronger DNA binding).
Method in brief: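 In this array assay, P. falciparum DNA-binding domains with a GST tag, expressed in E. coli, were applied for 1 h to primer-extended double-stranded 36-bp intergenic genomic probes and negative controls on an Agilent 4 × 180k array. Bound protein was visualised with Alexa488 anti-GST antibody at 488 nm. Binding intensity is the highest Masliner-normalised natural-log median intensity across replicate spots of either probe orientation.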

| Sequence | gcPBM binding intensity (ln) |
| --- | --- |
| CCCTGCCTCTCTTTGGTGCGTTGTAACCCTCGAGGA | 10.1 ± 0.15 |
| AAAAAAAAAAAAAGCACACACACATATGTGTATATA [CACACA_site8225] | 10.07 ± 0.049 |
| TTTTTTTTCACACATTGTACTTTTTTATAAAATATA [XGTACX_site4351] | 11.4 ± 0.87 |
| TAAGAAAAAGGCACACGTACATAATTCAAAATAAAT [XGTACX_site982] | 11.3 ± 0.67 |
| CCAATGAGGATATATACACACATACATTAAAAAAAT [CACACA_site5090] | 10 ± 0.17 |
| ATATATATGTATGTATGTACTTATTTATTTATTTAT [XGTACX_site7740] | 11.3 ± 0.87 |
| ATTTAAATAATATGTACACACATTTAAAAAATTATA [CACACA_site2816] | 11.5 ± 0.89 |
| CGAAATAAATCTTATGCACACAAATAATTAATTAAA [CACACA_site8491] | 10.03 ± 0.028 |
| AAAAAAATATAATATTTGAATAAATATAATAATATG [XGTACX_negctrl_site477] | 9.57 ± 0.15 |
| GTCAACTTGTGATAAGTGCATATATATAATAAAATG | 10.2 ± 0.19 |
| ATTTATGAAAAGTAAAGTACACACAGGAAAAAAAAA [XGTACX_site3564] | 11.4 ± 0.72 |
| AATATATAGGTATTTACACACAATGTGAGATCTATA [CACACA_site3407] | 9.955 ± 0.021 |
| TTATAGAACTATATTGCACACATAATATATATATAT [CACACA_site9042] | 10.1 ± 0.18 |
| TATAAAAATAAGCACACACACAAATATATATTTATT [CACACA_site922] | 10.1 ± 0.26 |
| AAAAAAAAAAAAAAAGGTACACAAATACGTCCTGCA [XGTACX_site3354] | 11.5 ± 0.74 |
| GTTATAACTCAAATATGTACATATTATAAAACATAT [XGTACX_site6693] | 11.2 ± 0.86 |
| AATTATCAAAGTCTATACATACATACATACATACAT [GTGCAC_negctrl_site243] | 10.5 ± 0.38 |
| TAATTATAATAAAAAGGTACAGAAAAGTTATACTCA [XGTACX_site6111] | 11.1 ± 0.67 |
| ATAAAATAAATAAATATAAATATATATATATATATA [TGCATGCA_negctrl_site358] | 9.7 ± 0.37 |
| CACTCTTAAAATAAGGTGCACTATATAACGTGATTA [GTGCAC_site9422] | 10.4 ± 0.42 |
| TATACATATTTACAAGTGCATAATATTTTACAAAAA | 10.1 ± 0.26 |
| GAAATAATTGTTAAAGGTACACAATGCATATACAAT [XGTACX_site238] | 11.3 ± 0.67 |
| ATAATATATACTAAAAGTACATATTATAATAAATTA [XGTACX_site6749] | 11.1 ± 0.95 |

| Sequence | gcPBM binding intensity (ln) |
| --- | --- |
| CATATATTATTTAATAGTACATATAAAAGAAAAAAA [XGTACX_site4643] | 11.1 ± 0.49 |
| TATATAAATAAATGTGTACACACATTAAAATCAAAC [CACACA_site8733] | 11.6 ± 1.1 |
| TATATACATATATATACACACATATATATATTTTAT [CACACA_site3788] | 9.77 ± 0.085 |
| ATTTATTTATTTTTTTGTACGAATGTTGCACATATA [XGTACX_site4101] | 10.8 ± 0.37 |
| ACTTCATTTTTTTTATGTACACAGAAGATTTACAAA [XGTACX_site4021] | 11.5 ± 0.87 |
| AGGAAAATAGAAAAAGCACACATATATTTTGGAATG [CACACA_site8080] | 9.93 ± 0.11 |
| ACATATGTATGAATATCAAAAAATCCCTATTTAATG [GTGCAC_negctrl_site27] | 10.04 ± 0.078 |
| AAAATAATAATTAATACATGCATTAATTCTTTTTTT [TGCATGCA_site741] | 9.43 ± 0.28 |
| ATTTTCACCTGAACGGTGCATATTTAATTTTAGGTT | 10.1 ± 0.13 |
| ATATATGTACAAATTGTGCGCAATAATTTTGTCTTT | 11.1 ± 0.54 |
| ATAGAAACATATTGACGTACAGTATAATAATACAGT [XGTACX_site197] | 11.6 ± 1 |
| AAATCAACTTATTTTTGTACATATATTTATTATATA [XGTACX_site2925] | 11 ± 0.47 |
| TCTTTATGTAAGGTCTTCCACAAAAAAATTAAAAAA [TGCATGCA_negctrl_site229] | 10.2 ± 0.32 |
| GAAAAATTAATAAATAAACACACATATATATATATA [CACACA_site8835] | 10.4 ± 1.1 |
| ATATATTATAGAGGTGTGCACTACATACATTATAAT [GTGCAC_site9991] | 10.6 ± 0.35 |
| AAAAAAAAAAAAAGTTGTACATTATTTTCCTAATTC [XGTACX_site7998] | 11.2 ± 0.62 |
| TATATTATATGTATTGCACACCTTCAACAACTACTT [CACACA_site8121] | 10.12 ± 0.092 |
| TTTAATTAGGATAATTGTACTGAACTAAGTATATTT [XGTACX_site1871] | 10.8 ± 0.6 |
| GAATGAAAATAAAATTGTACACATATCTATATCTAT [XGTACX_site2642] | 11.4 ± 0.71 |
| TTTTATAAATCTAAACGTATCTAAATGAATAATTAA [GTGCAC_negctrl_site44] | 9.92 ± 0.057 |
| ATATGTATTAAGTGTACACATATAATGGGTTTGTTA [CACACA_site5682] | 11.7 ± 0.95 |
| ATACATATATATGTGTGTACATATGTGTATACATTT [XGTACX_site6544] | 11.3 ± 0.81 |
| CACAAACAAAAACACACACACACACCCACAAAAATG [CACACA_site2429] | 10.6 ± 0.34 |

| Sequence | gcPBM binding intensity (ln) |
| --- | --- |
| TATATTTTTTTTGTGCGTACATACCATTTTAATAAT [XGTACX_site2751] | 11.7 ± 0.8 |
| TATTTTTATATAATGTGTACTTATACCTTATTTTTT [XGTACX_site1658] | 11.4 ± 0.84 |
| TATTATTTTATGAATACACACATATACGAAAATATT [CACACA_site964] | 10.1 ± 0.22 |
| AATTATTGTATGCTATACGTTCCCCTCTAATTTATC [CACACA_negctrl_site1052] | 10 ± 0.099 |
| ATTGGGTACAAATACACACACATATAAATATTAATA [CACACA_site7173] | 11.1 ± 0.93 |
| TTTTTAAATTATTGCACACAAAAATGAAAGGAAAAA [CACACA_site1455] | 10.3 ± 0.26 |
| AAAAAAAAAAAACACACACACACACTAATACATACA [CACACA_site8135] | 10.12 ± 0.078 |
| TTTCCCTACCAAAAATGTACTTATAAGCGTTTTTAT [XGTACX_site739] | 11 ± 0.6 |
| AAGTAAAAAAATAGCACACACACAAAAACACAGACA [CACACA_site4839] | 10.4 ± 0.35 |
| AAAGGGATGTTCATTCTTTTTTTTTTTTTTGTATAT [CACACA_negctrl_site511] | 9.46 ± 0.28 |
| CTAAAAATCTTTTGTTGTACTTTTAGATAATCAGGA [XGTACX_site3968] | 11.5 ± 0.98 |
| TACATATTTATATACACACACACCGTCCGTGTTAAA [CACACA_site7413] | 10.2 ± 0.14 |
| AATGGTTTAAAATACTGTACATATATATAAAAGTAA [XGTACX_site6187] | 11.2 ± 0.83 |
| TTCCTAATTGACAACACACACAACAAAAAAGGGATT [CACACA_site1279] | 10.3 ± 0.27 |
| TTTTTTTAAATATACACACACATTTATACCTATATA [CACACA_site7572] | 10.2 ± 0.28 |
| TATATATATATAGACACACACACACCCATATATATA [CACACA_site4117] | 10.2 ± 0.3 |
| TATAACTATAAAAGTAGTACACATATATATTATATA [XGTACX_site1391] | 11.5 ± 1 |
| CTTGTCATTTTGCACACACACATGTATAGGTTATTA [CACACA_site7431] | 10.4 ± 0.33 |
| TATATTTATATGATAACACACATAAATTATACATTT [CACACA_site1671] | 9.86 ± 0.13 |
| TTAATTTTATTTTTTTGTACACATAAATATTATAAA [XGTACX_site4680] | 11.4 ± 0.91 |
| CACTAAAATAAACACACACACACACCGATATATATA [CACACA_site9379] | 10.2 ± 0.31 |
| TATGTATATAAATTAACACACATATGTGGTTAATAG [CACACA_site3143] | 9.89 ± 0.057 |
| AGTCTGAATAAAATTACACACATATACATATATATA [CACACA_site1780] | 9.755 ± 0.092 |

| Sequence | gcPBM binding intensity (ln) |
| --- | --- |
| AAAAAAAAAAAAAAAACACACAATAAAGTAAAATTT [CACACA_site135] | 10.15 ± 0.049 |
| ATATATAAATTTTAGTGTACATTAATTTTTTTTTTT [XGTACX_site7782] | 11.5 ± 0.7 |
| TAAATATATTAAGCTTGTACATGAAAAAAAAAAAAA [XGTACX_site3264] | 10.7 ± 0.7 |
| TAAAAAAAAAAAAAAGCATGCTATATTATATTACAC [TGCATGCA_site241] | 9.64 ± 0.057 |
| TTTTTTTTTCCGTGTTGTACAAAAAAAAAGATTTTG [XGTACX_site3925] | 11.1 ± 0.74 |
| AAGAAATATTTATACACACACACAAACATATAAATA [CACACA_site6981] | 10.14 ± 0.057 |
| TATAACTATTCACAGACATGCACATAATAACAATAA [TGCATGCA_site207] | 10.07 ± 0.099 |
| TACCTTTTTTGTTTTATGCACACCATATAACCAAGG [CACACA_site30] | 10.4 ± 0.32 |
| GTACAAAAATAAATTGCACACATTTTAATAAAAAAA [CACACA_site2130] | 10.7 ± 0.19 |
| CAAAATTGACATGACGCACACAAGTGTAGATATTTT [CACACA_site1250] | 10.31 ± 0.064 |
| TAGTTGTTTATAACACGTTGACAGAAATGTTATGTA [GTGCAC_negctrl_site624] | 10.1 ± 0.11 |
| TATATTTATTTATATACACACATATTTATAAATATA [CACACA_site7047] | 10.1 ± 0.17 |
| AGATTTAAATATCATACACACTTTATCTATAATACA [CACACA_site6581] | 9.86 |
| AAGCATTTCCATGGTGGTACTATACAAATAATAATT [XGTACX_site6193] | 11 ± 0.66 |
| TATAAATAATGTTAAACACACATACCGATATATAAC [CACACA_site7306] | 9.99 ± 0.085 |
| CGAACATTATAAATGTCATTTTTTCCAACTTGATCT [GTGCAC_negctrl_site501] | 9.75 ± 0.28 |
| TCTCTCTTATAAAATACACACGAACAATCATATTAT [CACACA_site8065] | 10.14 ± 0.092 |
| ATTTTTTTTTTTAAATGTACATAATATATATATAAT [XGTACX_site2686] | 11.1 ± 0.74 |
| AAAAAAATTTGTATCACACACGTATTATAAAAAAAT [CACACA_site4182] | 10.4 ± 0.24 |
| TATTAAACTAAATGTAGTACATACACAAACGTAATC [XGTACX_site4905] | 11.5 ± 0.97 |
| TATTCGTGCAATAATGGTACACTTATAAATTATTCA [XGTACX_site1430] | 11.1 ± 0.63 |
